Out of some 360,000 compounds screened, about 16,000 (4.4%) were called active. This list was built around the results that the source calls inconclusive (neither active nor inactive); the mix of calls is not that of the screen. Calls come from the whole dose curve; as a rule, active = well fitted inhibition curve with a large enough effect; inconclusive = small, poorly fitted or top-dose-only effect; inactive = no such curve, though single readings can be large or run the other way. A potency beside an inconclusive call is a rough fit, not a confirmed value.
These compounds were tested against Bromodomain adjacent to zinc finger domain protein 2B (Homo sapiens) (UniProt Q9UIF8) (assay: qHTS Assay for Inhibitors of BAZ2B). Details: AlphaScreen BAZ2B-H3K14Ac peptide displacement; series mostly up to 114 µM.
Sequence of UniProt Q9UIF8 (Q9UIF8 whole entry, looked up, the tested form may be a part): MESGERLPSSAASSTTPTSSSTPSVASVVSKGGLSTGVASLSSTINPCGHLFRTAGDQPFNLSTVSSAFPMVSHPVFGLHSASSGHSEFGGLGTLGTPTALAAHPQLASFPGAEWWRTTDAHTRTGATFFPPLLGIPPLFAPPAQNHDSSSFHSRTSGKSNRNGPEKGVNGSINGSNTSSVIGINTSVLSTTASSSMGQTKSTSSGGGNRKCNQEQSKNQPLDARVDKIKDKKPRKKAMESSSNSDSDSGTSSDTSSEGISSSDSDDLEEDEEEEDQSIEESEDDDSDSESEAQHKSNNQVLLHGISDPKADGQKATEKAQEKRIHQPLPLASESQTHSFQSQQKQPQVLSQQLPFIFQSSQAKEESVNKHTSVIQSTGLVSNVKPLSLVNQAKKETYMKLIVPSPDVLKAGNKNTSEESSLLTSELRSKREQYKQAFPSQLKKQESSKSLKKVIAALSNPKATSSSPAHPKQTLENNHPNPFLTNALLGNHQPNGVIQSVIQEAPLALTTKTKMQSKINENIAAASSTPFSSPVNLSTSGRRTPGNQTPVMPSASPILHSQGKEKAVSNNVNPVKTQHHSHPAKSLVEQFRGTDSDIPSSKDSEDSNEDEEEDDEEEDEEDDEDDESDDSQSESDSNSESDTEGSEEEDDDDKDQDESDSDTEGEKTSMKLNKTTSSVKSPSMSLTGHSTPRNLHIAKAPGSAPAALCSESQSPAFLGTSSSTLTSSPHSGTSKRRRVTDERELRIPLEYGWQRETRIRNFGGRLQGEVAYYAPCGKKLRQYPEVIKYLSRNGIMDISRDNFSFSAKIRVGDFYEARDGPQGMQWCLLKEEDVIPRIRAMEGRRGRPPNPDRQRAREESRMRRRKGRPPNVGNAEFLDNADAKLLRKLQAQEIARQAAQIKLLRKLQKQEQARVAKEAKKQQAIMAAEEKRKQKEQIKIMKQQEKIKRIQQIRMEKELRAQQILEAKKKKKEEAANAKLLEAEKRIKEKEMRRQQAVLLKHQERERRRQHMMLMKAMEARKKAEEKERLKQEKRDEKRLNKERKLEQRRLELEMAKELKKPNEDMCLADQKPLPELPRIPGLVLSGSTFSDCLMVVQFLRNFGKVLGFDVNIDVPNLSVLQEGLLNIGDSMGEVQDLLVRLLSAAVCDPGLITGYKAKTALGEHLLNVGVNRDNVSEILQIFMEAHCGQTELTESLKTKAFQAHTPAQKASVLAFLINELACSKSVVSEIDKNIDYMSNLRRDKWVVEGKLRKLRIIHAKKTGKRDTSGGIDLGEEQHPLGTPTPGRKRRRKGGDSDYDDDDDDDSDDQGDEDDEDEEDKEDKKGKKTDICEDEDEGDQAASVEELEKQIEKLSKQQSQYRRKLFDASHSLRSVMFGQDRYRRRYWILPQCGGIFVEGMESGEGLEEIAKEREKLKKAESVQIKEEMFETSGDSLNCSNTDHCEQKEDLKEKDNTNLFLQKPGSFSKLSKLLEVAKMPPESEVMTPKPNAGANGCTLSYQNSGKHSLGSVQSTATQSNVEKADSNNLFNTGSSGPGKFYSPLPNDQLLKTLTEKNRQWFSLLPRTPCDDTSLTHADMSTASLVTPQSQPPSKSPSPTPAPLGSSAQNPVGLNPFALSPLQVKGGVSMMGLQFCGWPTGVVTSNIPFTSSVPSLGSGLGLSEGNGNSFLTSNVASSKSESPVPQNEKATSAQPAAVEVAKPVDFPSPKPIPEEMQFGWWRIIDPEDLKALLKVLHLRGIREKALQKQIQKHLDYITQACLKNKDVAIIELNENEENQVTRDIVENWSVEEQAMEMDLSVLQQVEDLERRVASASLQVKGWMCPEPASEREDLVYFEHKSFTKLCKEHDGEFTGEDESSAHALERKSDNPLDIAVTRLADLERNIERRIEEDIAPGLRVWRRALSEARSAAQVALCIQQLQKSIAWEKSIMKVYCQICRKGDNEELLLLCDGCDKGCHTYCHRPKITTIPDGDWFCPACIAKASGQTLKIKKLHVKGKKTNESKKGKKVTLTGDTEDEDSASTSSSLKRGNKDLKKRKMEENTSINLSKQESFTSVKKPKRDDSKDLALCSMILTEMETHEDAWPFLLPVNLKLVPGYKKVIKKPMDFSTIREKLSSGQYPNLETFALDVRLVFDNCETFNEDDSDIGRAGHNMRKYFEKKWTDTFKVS
In short: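 Inhibition is scored as reduced AlphaScreen emission. The BAZ2B/b-H3(5-23)K14Ac complex (50 nM each) in PBS pH 7.4, 0.01% Tween-20 meets compound (up to 110 uM) for 30 min at RT before bead addition.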
In the case of Cc1cc2cc(CCNC(=O)CCCc3ccccc3)c(=O)[nH]c2cc1C, the Potency is reported as “inactive”.
In the case of COc1ccc(C(c2nnnn2C2CCCCC2)N2CCN(c3ccc(OC)cc3)CC2)cc1 (stereo unspecified), the Potency is reported as active: 39.8 µM.
With COc1cc(/C=N/O)ccc1Oc1ccc([N+](=O)[O-])cc1[N+](=O)[O-] the Potency was inconclusive: 50.1 µM [inhibitor, partial curve].
With CCCNCCC(c1ccco1)c1ccccc1OC (stereo unspecified) the Potency was inconclusive: 79.4 µM [inhibitor, single point].
Cn1c(SCc2cccc([N+](=O)[O-])c2)nc2c(c1=O)SCC2 was tested, and the Potency was active: 70.8 µM.
With Clc1ccccc1CNCCCSc1nnnn1-c1ccccc1 the Potency was “inactive”.
O=C(O)c1cc(O)c2c(c1)C(=O)c1cc(O)cc(O)c1C2=O was tested, and the Potency was active: 50.1 µM.
In the case of CC(=O)Nc1ccc(NC(=O)CSc2nccn2Cc2ccc(Cl)cc2)cc1, the Potency is reported as inconclusive: 50.1 µM [inhibitor, partial curve].
With Cc1cc[n+](-c2[nH]c(=O)sc2/C=N/N=C(\[O-])c2ccccc2)cc1C the Potency was inconclusive: 56.2 µM [inhibitor, partial curve].
CCC(C)[C@@H](C(=O)Nc1ccc2c(c1)OCO2)N1Cc2ccccc2C1=O (stereo partly specified) was tested, and the Potency was inconclusive: 89.1 µM [inhibitor, single point].
With Cc1cccc(CN(C(=S)Nc2c(C)cccc2C)c2cccnc2)c1 the Potency was active: 79.4 µM.
O=c1cc2c(n[nH]1)CCCC2 was tested, and the Potency was inconclusive: 89.1 µM [inhibitor, single point].
With Cc1cccc(C(=O)OCC(=O)NCc2ccco2)c1 the Potency was inconclusive: 89.1 µM [inhibitor, single point].
In the case of O=C(NC(=S)Nc1nc(-c2ccccc2)cs1)c1ccco1, the Potency is reported as “inactive”.
With O=C(O)COc1ccccc1C(Nc1cccnc1)c1cc(Cl)c2cccnc2c1O (stereo unspecified) the Potency was active: 20 µM.
For Cc1cccc(N2CCN(C(=O)c3cc4ccc5cccnc5c4[nH]3)CC2)c1C, the Potency was “inactive”.
For CCc1ccccc1NC(=O)N1CCN(Cc2nc3ccc(C)cc3o2)CC1, the Potency was “inactive”.
For CN1CCN(C(c2ccc(Cl)cc2)c2cc(Cl)c3cccnc3c2O)CC1 (stereo unspecified), the Potency was active: 31.6 µM.
For O=[N+]([O-])c1c(NCCCO)cc(Sc2ccc(Cl)cc2)c2nonc12, the Potency was “inactive”.
O=C(c1cc2ccccc2cc1O)N1CCCC(C(F)(F)F)C1 (stereo unspecified) was tested, and the Potency was active: 79.4 µM.
With O=C(C[n+]1cc(Br)cc(Br)c1)c1ccc(-c2ccccc2)cc1 the Potency was inconclusive: 50.1 µM [inhibitor, partial curve].
In the case of Cc1ccc2nc(/C(C#N)=C/c3ccc(-c4ccc(F)cc4F)o3)[nH]c2c1, the Potency is reported as inconclusive: 14.1 µM [inhibitor, full curve].
In the case of COc1ccc(NC(=O)CN2C(=O)NC(C)(c3ccc(C)cc3)C2=O)c([N+](=O)[O-])c1 (stereo unspecified), the Potency is reported as inconclusive: 79.4 µM [inhibitor, partial curve].
With COc1ccc(NC(=S)N(Cc2ccc(N(C)C)cc2)Cc2ccco2)cc1 the Potency was active: 31.6 µM.
COc1ccc2[nH]c(=O)c(CN(Cc3ccccc3OC)Cc3nnnn3CC3CCCO3)cc2c1 (stereo unspecified) was tested, and the Potency was “inactive”.
With O=S(=O)(Nc1ccc(Cl)cc1)c1ccc(N2CCOCC2)c(NC(=S)NC2CC2)c1 the Potency was inconclusive: 50.1 µM [inhibitor, partial curve].
In the case of CC(NCC(O)c1ccc([N+](=O)[O-])cc1)C12CC3CC(CC(C3)C1)C2 (stereo unspecified), the Potency is reported as inconclusive: 79.4 µM [inhibitor, single point].
With Cc1c(OC(=O)c2ccc([N+](=O)[O-])cc2)c2c(c[n+]1C)COC(C)(C)OC2 the Potency was inconclusive: 89.1 µM [inhibitor, single point].
For Cc1cc(=O)c(C(=O)O)cn1Nc1ccc(F)cc1, the Potency was inconclusive: 100 µM [inhibitor, single point].
In the case of CC(C)NC(=O)c1ccc(CN2CCc3ccccc3C2)cc1, the Potency is reported as “inactive”.
In the case of C/C(=N\NC(=O)c1cccc(N/N=C(\C)c2ccncc2)c1)c1ccncc1, the Potency is reported as inconclusive: 89.1 µM [inhibitor, single point].
In the case of COc1ccc(CN(Cc2ccc(C(=O)O)cc2)C(=S)Nc2cc(C)cc(C)c2)cc1OC, the Potency is reported as “inactive”.
With O=C(COC(=O)/C=C/c1cccc([N+](=O)[O-])c1)NCc1ccco1 the Potency was active: 70.8 µM.
In the case of Cc1ccc(Cl)cc1NC(=O)C1CCCN(S(=O)(=O)c2c(C)noc2/C=C/N(C)C)C1 (stereo unspecified), the Potency is reported as inconclusive: 25.1 µM [inhibitor, full curve].
With COC(=O)c1ccc(C(=O)Nc2ccc(N)cc2N)cc1 the Potency was inconclusive: 79.4 µM [inhibitor, single point].
For Cc1ccc(NC(=O)Cn2nnc3ccccc32)cc1, the Potency was “inactive”.
In the case of O=C(O)c1cc(C(=O)C2CCCCC2)c[nH]1, the Potency is reported as inconclusive: 79.4 µM [inhibitor, single point].
Cc1ccccc1NC(=O)Cn1c(=O)n(Cc2ccco2)c(=O)c2cccnc21 was tested, and the Potency was “inactive”.
For CCn1c(CNc2ccc(F)cc2)nnc1SCC(=O)Nc1ccc(OC)cc1OC, the Potency was inconclusive: 89.1 µM [inhibitor, single point].
For CC(C)(C)n1nc2c(c1NC(=O)c1cc3ccccc3o1)CSC2, the Potency was inconclusive: 89.1 µM [inhibitor, single point].
For COC(=O)C(C)N1C(=O)S/C(=C/c2cc(C)n(C(C)C)c2C)C1=O (stereo unspecified), the Potency was “inactive”.
With COCCCN1C(=O)C(=O)/C(=C(/O)c2ccc(S(=O)(=O)N3CCCCC3)cc2)C1c1ccc(F)cc1 (stereo unspecified) the Potency was inconclusive: 89.1 µM [inhibitor, single point].
In the case of CCOc1ccc(NC(=O)NCCCN2CCN(c3ccc(OC)cc3)CC2)cc1, the Potency is reported as “inactive”.
CCCCCNCC(=O)Nc1cccc(C(=O)Nc2cccc(C(F)(F)F)c2)c1 was tested, and the Potency was inconclusive: 89.1 µM [inhibitor, single point].
In the case of CCc1nnc(NS(=O)(=O)c2ccc(NC(=S)NC(=O)/C=C/c3cccs3)cc2)s1, the Potency is reported as active: 50.1 µM.
For Cc1ccc(C)c(NC(=O)CCN2CCCC(C)C2)c1 (stereo unspecified), the Potency was “inactive”.
With c1ccc(CCNc2ccnc3cc4ccccc4cc23)cc1 the Potency was inconclusive: 70.8 µM [inhibitor, single point].
With COc1ccc(OCC(=O)N2CCc3c([nH]c4ccccc34)C2c2ccccn2)cc1 (stereo unspecified) the Potency was inconclusive: 35.5 µM [inhibitor, partial curve].
For COc1ccc(CNC(=S)Nc2ccc(F)c(Cl)c2)cc1, the Potency was inconclusive: 89.1 µM [inhibitor, single point].
For CC(=O)c1cccc(NC(=O)/C(=C\c2cccnc2)NC(=O)c2ccco2)c1, the Potency was “inactive”.
With Cc1cc(C)n(-c2cc(-n3nc(C)cc3C)ncn2)n1 the Potency was “inactive”.
With CCN1C(=O)CC(c2ccco2)Sc2ccccc21 (stereo unspecified) the Potency was inconclusive: 89.1 µM [inhibitor, single point].
In the case of CC(=O)c1ccc(Nc2ccc(-c3ccccc3C)nn2)cc1, the Potency is reported as active: 79.4 µM.
In the case of Cc1ccc(C(=O)O)cc1-n1c(C)cc(C=O)c1C, the Potency is reported as active: 79.4 µM.
In the case of CCOCc1nnc(NC(=O)c2cc(C(=O)OC)cc([N+](=O)[O-])c2)s1, the Potency is reported as inconclusive: 89.1 µM [inhibitor, single point].
In the case of COc1ccc(C2C(C(=O)c3ccco3)=C(O)C(=O)N2Cc2cccnc2)cc1OC (stereo unspecified), the Potency is reported as inconclusive: 79.4 µM [inhibitor, partial curve].
c1ccc2c(c1)CCCN2c1nc2ccccc2n2cnnc12 was tested, and the Potency was “inactive”.
In the case of CC(Cc1n[nH]c(=S)n1N)c1ccccc1 (stereo unspecified), the Potency is reported as “inactive”.
COc1ccc(O[C@H]2C=C[C@@H](c3ccccc3)O[C@@H]2CO/N=C(\C)CCN2CCCCc3nc(C)c(C)cc32)cc1 was tested, and the Potency was inconclusive: 63.1 µM [inhibitor, partial curve, poor fit].
With c1ccc(-c2nc(NCCCn3ccnc3)c3ccccc3n2)cc1 the Potency was inconclusive: 70.8 µM [inhibitor, single point].
With COc1cc(C(=O)Nc2sc3c(c2C(=O)NCc2ccco2)CCCC3)cc(OC)c1OC the Potency was inconclusive: 7.08 µM [inhibitor, single point].
COc1ccc(CNC(=O)CCN2C(=O)c3ccncc3C2=O)cc1OC was tested, and the Potency was “inactive”.
O=C(NCC(c1ccco1)N1CCc2ccccc2C1)c1ccccc1Cl (stereo unspecified) was tested, and the Potency was inconclusive: 100 µM [inhibitor, single point].
CCOCCCNC(=O)C1CCC(CNS(=O)(=O)c2ccc(OC)cc2)CC1 (stereo unspecified) was tested, and the Potency was “inactive”.
Cc1ccccc1OCC(=O)Nc1ccc(N2CCN(S(C)(=O)=O)CC2)cc1 was tested, and the Potency was inconclusive: 89.1 µM [inhibitor, single point].
For O=[N+]([O-])c1cccc(Oc2cnccn2)c1, the Potency was “inactive”.
For O=C(c1ccc(CS(=O)c2ccccc2Cl)o1)N1CCN(c2ccccc2F)CC1 (stereo unspecified), the Potency was “inactive”.
In the case of Cc1c(C(=O)NCCN2CCOCC2)oc2ccc(Br)cc12, the Potency is reported as active: 50.1 µM.
CC(Sc1nncn1C)C(=O)Nc1ccc(N2CCCCC2)cc1 (stereo unspecified) was tested, and the Potency was “inactive”.
In the case of COc1ccccc1-c1c(C)nn2c(C(F)(F)F)cc(-c3ccccc3)nc12, the Potency is reported as inconclusive: 10 µM [inhibitor, full curve, poor fit].
For O=C(c1cc(COc2cccc3cnccc23)on1)N1CCC(c2ccccc2Cl)C1 (stereo unspecified), the Potency was inconclusive: 31.6 µM [inhibitor, full curve, poor fit].
For CSc1cccc(NC(=O)c2ccc3c(c2)c(C)c(C)n3Cc2ccc(F)cc2)c1, the Potency was “inactive”.
In the case of N#CC1=C2C=CC=CN2CC1=O, the Potency is reported as active: 50.1 µM.
Cc1cc(C)c2c(CC(=O)Nc3nnc(CC(C)C)s3)coc2c1 was tested, and the Potency was “inactive”.
In the case of COc1ccc([N+](=O)[O-])cc1NS(=O)(=O)c1cccc(C(=O)O)c1, the Potency is reported as “inactive”.
With NNc1nc(N)c2c(n1)-c1ccccc1CC21CCCC1 the Potency was inconclusive: 70.8 µM [inhibitor, single point].
Note: nearly all actives have a fitted effect of over 60% in size.
Potency is the fitted concentration of half-maximal effect; tags give direction and shape of the fitted curve.
